Measured values: PubChem BioAssay AID624172 (National Center for Advancing Translational Sciences (NCATS), 2012)
The campaign covered roughly 380,000 compounds. About 25 (0.007%) were called active. Inconclusive means that the source gave no clear call. Such entries were picked first, then a sample of the others. The call rests on the fitted dose curve; in most records, active means well fitted activation curve with a large enough effect; inconclusive means small, poorly fitted or top-dose-only effect; inactive means no such curve, though single readings can be large or run the other way. Potencies of inconclusive entries are left out as doubtful fits.

What follows are compounds tested against Glucagon-like peptide 1 receptor (Homo sapiens) (UniProt P43220) (assay: qHTS of GLP-1 Receptor Agonists). Conditions: HEK293 GLP-1R CRE-luciferase, luminescence, 4-6 h, cells express a hypersensitive GLP-1R form; activation: at 45.6 µM (top of the series) unless noted.
Source text: The overall goal of this project was to develop a novel assay for discovering small molecule ligands for class B1 G protein-coupled receptors (GPCRs). Very few agonists (or inverse agonists) with generally weak activity for this entire group of physiologically important receptors are known to date. To establish proof-of-principle that this critical bottleneck can be overcome with a suitable screening approach, our studies focused on the class B1 receptor for glucagon-like peptide-1 (GLP-1R), a potential therapeutic target for diabetes and neurodegenerative disease.
The assay was developed in a "mix and measure" format using a cell-based functional readout. Toward this goal, stably transfected HEK293 cell clones were established that co-express (i) a cAMP-responsive luciferase reporter gene, and (ii) GLP-1Rs that upon ligand interaction either stimulate (agonists) or inhibit (inverse agonists) luciferase activity. In different cell lines to be used for screening, expressed GLP-1Rs are specifically optimized for high sensitivity detection of either weak agonists (hypersensitive receptor) or inverse agonists (constitutively active receptor mutant). In addition, control cell lines were developed that express either the cAMP-responsive reporter gene without recombinant GLP-1Rs (enabling initial exclusion of GLP-1R independent effects of candidate probes), or the reporter gene together with wild type GLP-1Rs (for confirmation of probe activity at this receptor), or the reporter gene in combination with the constitutively active orphan receptor GPR119 (enabling initial exclusion of GLP-1R independent inhibitory effects of candidate inverse agonists).
To that end, this assay was optimized for 1536-well format and screened against the MLSMR.
NIH Molecular Libraries Probe Production Network [MLPCN]
NIH Chemical Genomics Center [NCGC]
PI Name: Martin Beinborn, Tufts Medical Center
In a white solid 1536-well plate, 6 uL of cells are dispensed in DMEM without phenol red, 10% Nu serum, and 1% pen-strep medium. The plates are then incubated for 12 hours at 37 deg C at 5% CO2 before 23 nL of compounds are added. After a 4-6 hr incubation at37 deg C and 5% CO2, 3 uL of detection reagent are added and after a 12 min incubation at RT, a luminescent read is obtained on the ViewLux.
Potency means the concentration at half of the fitted maximal effect; tags describe the fitted curve by direction and shape.
Wherever activation is given: % of control where 0% means no effect.

UniProt P43220, sequence (P43220 whole entry, looked up): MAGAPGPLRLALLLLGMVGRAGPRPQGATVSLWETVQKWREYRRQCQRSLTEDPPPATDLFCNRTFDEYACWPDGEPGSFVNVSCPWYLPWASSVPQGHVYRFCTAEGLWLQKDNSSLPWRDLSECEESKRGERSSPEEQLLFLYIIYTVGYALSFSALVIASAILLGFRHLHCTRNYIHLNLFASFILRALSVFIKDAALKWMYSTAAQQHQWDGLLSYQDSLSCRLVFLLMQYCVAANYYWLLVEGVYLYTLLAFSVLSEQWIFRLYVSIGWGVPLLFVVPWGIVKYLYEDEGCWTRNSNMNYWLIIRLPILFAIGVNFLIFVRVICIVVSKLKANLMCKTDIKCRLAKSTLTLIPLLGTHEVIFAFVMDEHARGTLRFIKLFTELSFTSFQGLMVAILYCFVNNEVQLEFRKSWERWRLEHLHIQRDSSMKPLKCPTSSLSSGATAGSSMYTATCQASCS

Compound | Potency | activation
O=C(CCCOc1ccc(Cl)cc1Cl)N1CCc2ccccc2C1 | inconclusive [activator, single point] | 
COc1cccc(-c2cc(NC=O)c3ncc(-c4ccc(OC)c(OC)c4)n3c2)c1 | inconclusive [activator, partial curve, poor fit] | 
Cc1ccc(-n2nc3c(=O)n(CC(=O)NCCc4ccco4)nc(C)c3c2C)cc1 |  | inactive: -3.29%
COc1ccc(-c2ccc(SCC(=O)NC3CCCC3)nn2)cc1OC | inconclusive [activator, partial curve, poor fit] | 
CC(=O)CS(=O)(=O)c1ccc(Oc2ccc(S(=O)(=O)CC(C)=O)cc2)cc1 |  | inactive: -3.37%
Cc1ccsc1C(=O)Nc1cc(C(C)(C)C)nn1-c1ccccc1 | inconclusive [activator, full curve, poor fit] | 
CCOC(=O)c1c(C)c(C)n(Cc2ccc(OC)c(OC)c2)c1C | inconclusive [activator, partial curve, poor fit] | 
COc1cc2c(cc1OC)-c1cc(N3CCCc4ccccc43)nc(=O)n1CC2 | inconclusive [activator, partial curve] | 
Cc1cccc(NC(=S)NC(=O)c2cccs2)n1 | inconclusive [activator, partial curve, poor fit] | 
CC(C)OC(=O)c1c(NS(=O)(=O)c2ccccc2)sc2c1CCCC2 |  | inactive: 0.492%
COc1ccc(CN2CCC(N(CCc3ccccc3)Cc3ccccc3)CC2)c(OC)c1 |  | inactive: 3.89%
COc1ccc(C2=CC(=O)CC(c3ccccc3)C2)cc1 (configuration not stated) | inconclusive [activator, single point] | 
C=CCc1c(C)nc(-c2ccccc2)nc1Nc1ccccc1O | inconclusive [activator, partial curve] | 
CN(Cc1ccccc1F)c1cc2c(c3c1ccn3C)C1CCC2C1 (configuration not stated) |  | inactive: -1.1%
COc1cc(NC(=O)C2CC(c3c(F)cccc3Cl)=NO2)cc(OC)c1OC (configuration not stated) | inconclusive [activator, partial curve, poor fit] | 
CCOC(=O)c1cc(Cl)c2c(ccc3ccccc32)n1 |  | inactive: -0.353%
O=C(Cc1ccc(Cl)cc1)Oc1cccc2cccnc12 |  | inactive: 21.7%
CCOC(=O)CCC(=O)OC1C(OC2C(C)C(OC3CC(C)(OC)C(O)C(C)O3)C(C)C(=O)OC(CC)C(C)(O)C(O)C(C)C(=O)C(C)CC2(C)O)OC(C)CC1N(C)C (configuration not stated) |  | inactive: -2.34%
OC(CNCC#Cc1ccccc1)c1ccccc1 (configuration not stated) | inconclusive [activator, partial curve] | 
N#Cc1c(NC(=O)C2CC2)sc2c1CCCCC2 | inconclusive [activator, partial curve, poor fit] | 
COc1ccc2cc(-c3[nH]ncc3CN3CCCCO3)ccc2c1 | inconclusive [activator, partial curve] | 
CN1CCN(c2ccccc2NC(=O)c2ccc(-c3ccc(Cl)cc3Cl)o2)CC1 | inconclusive [activator, partial curve] | 
Cc1ccnc2ccc(-c3nc4ccccc4o3)cc12 |  | inactive: -1.58%

Compound | Potency | activation
CCCCC(=O)Nc1cccc(-c2cn3ccccc3n2)c1 | inconclusive [activator, partial curve, poor fit] | 
CCCCCCSc1cc(-c2nc3ccc(Cl)cn3c2NCCCC)ccc1OC | inconclusive [activator, single point] | 
CCN1C(=O)[C@H]2[C@@H](c3ccc(-c4cccc(Cl)c4)c(OC)c3)N[C@@](Cc3ccccc3)(C(=O)OC)[C@H]2C1=O |  | inactive: -4.65%
Cc1ccc(/C=N/NC(=S)NC2CCCCC2)o1 | inconclusive [activator, partial curve, poor fit] | 
COc1ccc(OC)c(N/C=C/C(=O)c2ccc(OC)c(OC)c2)c1 | inconclusive [activator, full curve] | 
Cc1noc(C)c1COc1ccccc1C(=O)Nc1cccc(S(=O)(=O)N(C)C)c1 | inconclusive [activator, full curve, poor fit] | 
COc1ccccc1-c1cnn2c(NC3CCCC3)cc(C)nc12 | inconclusive [activator, partial curve, poor fit] | 
c1ccc(-c2nc(NCc3ccco3)c3oc4ccccc4c3n2)cc1 | inconclusive [activator, single point] | 
O=C(N/N=C/C(Br)=C/c1ccccc1)c1cccs1 | inconclusive [activator, partial curve, poor fit] | 
CCOC(=O)c1c(C)c(C(=O)NCc2cccs2)c(C)n1C | inconclusive [activator, partial curve, poor fit] | 
CC(=O)n1cc(Nc2ccccc2C(=O)O)c2ccccc21 |  | inactive: -9.45%
CCOC(=O)c1[nH]c(C)c(C(=O)C(C)C)c1C | inconclusive [activator, partial curve, poor fit] | 
CCOC(=O)/C(C#N)=C/Nc1cc(OC)ccc1OC | inconclusive [activator, single point] | 
CCCCN(C(=O)c1cnccn1)c1c(N)n(CCC)c(=O)[nH]c1=O |  | inconclusive: 42.2% [activator]
O=C1C(Cl)=C(NCC2CCCO2)C(=O)N1CCc1ccccc1 (configuration not stated) | inconclusive [activator, partial curve] | 
COc1cc(/C=N/NC(=O)CCn2cnc(-c3ccccc3)c2-c2ccccc2)ccc1O | inconclusive [activator, partial curve] | 
O=C(NCCCN1CCOCC1)C(=O)N/N=C/c1ccccc1 |  | inactive: -0.189%
CCOC(=O)Cn1cnc2scc(-c3ccccc3)c2c1=O | inconclusive [activator, single point] | 
CCOC(=O)/C(C)=N/Nc1nc(-c2ccc(NC(C)=O)cc2)cs1 |  | inactive: 8.1%
CC1CCCCN1C(=O)c1cc2c(=O)n3ccccc3nc2s1 (configuration not stated) | inconclusive [activator, partial curve, poor fit] | 
O=C(Nc1ccc(N2CCOCC2)c2nonc12)C1CCCC1 | inconclusive [activator, partial curve, poor fit] | 
Cc1ccccc1-n1c(SCc2c(C)noc2C)nnc1-c1ccncc1 | inconclusive [activator, single point] | 
COc1ccc(-c2cnc3c(NC=O)cc(-c4ccc(S(C)(=O)=O)cc4)cn23)cc1OC | inconclusive [activator, full curve, poor fit] | 

Compound | Potency | activation
CCOC(=O)c1sc(N)c(C(=O)OCC)c1COC(=O)C1CC(=O)N(Cc2ccco2)C1 (configuration not stated) | inconclusive [activator, single point] | 
CC(C)(C)c1ccc(/C=C/C(=O)Nc2ccc(S(N)(=O)=O)cc2)cc1 |  | inactive: -22%
COc1cc(/C=N/NC(=O)CNS(=O)(=O)c2ccc(C)cc2)cc(OC)c1OC | inconclusive [activator, partial curve, poor fit] | 
CCOC(=O)C1=C(COC(=O)c2ccc(Br)o2)NC(=O)NC1C (configuration not stated) | inconclusive [activator, single point] | 
CCc1ccc(-c2c(C)sc(NC(C)=O)c2C(N)=O)cc1 | inconclusive [activator, single point] | 
O=C(O)C1C2C=CC(O2)C1C(=O)NCc1ccc2c(c1)OCO2 (configuration not stated) |  | inactive: -9.54%
COc1ccc(-c2nc(C#N)c(NCC3CCCO3)o2)cc1OC (configuration not stated) | inconclusive [activator, single point] | 
C=Cc1ccc(COC(=O)c2cn(CC)c3nc(C)ccc3c2=O)cc1 | inconclusive [activator, partial curve, poor fit] | 
C=Cc1c(C)c2cc3[nH]c(cc4nc(cc5nc(cc1[nH]2)C(C)=C5CCC(=O)O)C(CCC(=O)O)=C4C)c(C)c3C=C | inconclusive [activator, single point] | 
CC1(C(=O)NCc2cccs2)Cc2c(-c3ccc4c(c3)OCO4)ccnc2O1 (configuration not stated) | inconclusive [activator, single point] | 
COc1ccc(OC)c(CN2CCN(C(=O)c3cccc4ccccc34)CC2)c1 | inconclusive [activator, partial curve, poor fit] | 
O=C(CSc1nc2ccccc2s1)CSc1nc2ccccc2s1 |  | inactive: 4.21%
CC(=O)NC1(c2ccccc2)CCN(c2cc(C)nc(-c3ccccc3)n2)CC1 | inconclusive [activator, partial curve, poor fit] | 
O=C(OCc1ccccc1Cl)c1cc([N+](=O)[O-])ccc1N1CCOCC1 | inconclusive [activator, single point] | 
ClCCn1cnc2c(SCc3ccccc3)ncnc21 | inconclusive [activator, partial curve] | 
COCCNC(=O)c1cc(-c2ccccc2OC)on1 |  | inactive: 21%
COc1ccc(CC(=O)O/N=C(\N)c2ccc(Br)cc2)cc1OC | inconclusive [activator, partial curve, poor fit] | 
Nc1ccc(Cl)cc1C(=O)c1ccc[nH]1 |  | inactive: -4.38%
Cc1c(C(=O)NCc2cccs2)oc2ccc(Br)cc12 | inconclusive [activator, partial curve] | 
Cc1noc(C)c1CSc1nc2ccccc2c(=O)n1-c1ccccc1 | inconclusive [activator, single point] | 
CCOC(=O)CN1C(=O)/C(=C/c2c(F)cccc2Cl)Oc2ccccc21 | inconclusive [activator, single point] | 
